In paper PMC4336329 (PLoS ONE, 2015):
About 2,200 (0.71%) of roughly 310,000 compounds showed an effect of 50% or more. The effect is printed as a negative number. This is one part of the list.

molecular target: human ether-à-go-go-related gene (hERG) potassium channel (human, UniProt Q12809); assay: primary screen, population patch clamp on CHO cells stably expressing hERG
Sequence (Q12809 whole entry, looked up): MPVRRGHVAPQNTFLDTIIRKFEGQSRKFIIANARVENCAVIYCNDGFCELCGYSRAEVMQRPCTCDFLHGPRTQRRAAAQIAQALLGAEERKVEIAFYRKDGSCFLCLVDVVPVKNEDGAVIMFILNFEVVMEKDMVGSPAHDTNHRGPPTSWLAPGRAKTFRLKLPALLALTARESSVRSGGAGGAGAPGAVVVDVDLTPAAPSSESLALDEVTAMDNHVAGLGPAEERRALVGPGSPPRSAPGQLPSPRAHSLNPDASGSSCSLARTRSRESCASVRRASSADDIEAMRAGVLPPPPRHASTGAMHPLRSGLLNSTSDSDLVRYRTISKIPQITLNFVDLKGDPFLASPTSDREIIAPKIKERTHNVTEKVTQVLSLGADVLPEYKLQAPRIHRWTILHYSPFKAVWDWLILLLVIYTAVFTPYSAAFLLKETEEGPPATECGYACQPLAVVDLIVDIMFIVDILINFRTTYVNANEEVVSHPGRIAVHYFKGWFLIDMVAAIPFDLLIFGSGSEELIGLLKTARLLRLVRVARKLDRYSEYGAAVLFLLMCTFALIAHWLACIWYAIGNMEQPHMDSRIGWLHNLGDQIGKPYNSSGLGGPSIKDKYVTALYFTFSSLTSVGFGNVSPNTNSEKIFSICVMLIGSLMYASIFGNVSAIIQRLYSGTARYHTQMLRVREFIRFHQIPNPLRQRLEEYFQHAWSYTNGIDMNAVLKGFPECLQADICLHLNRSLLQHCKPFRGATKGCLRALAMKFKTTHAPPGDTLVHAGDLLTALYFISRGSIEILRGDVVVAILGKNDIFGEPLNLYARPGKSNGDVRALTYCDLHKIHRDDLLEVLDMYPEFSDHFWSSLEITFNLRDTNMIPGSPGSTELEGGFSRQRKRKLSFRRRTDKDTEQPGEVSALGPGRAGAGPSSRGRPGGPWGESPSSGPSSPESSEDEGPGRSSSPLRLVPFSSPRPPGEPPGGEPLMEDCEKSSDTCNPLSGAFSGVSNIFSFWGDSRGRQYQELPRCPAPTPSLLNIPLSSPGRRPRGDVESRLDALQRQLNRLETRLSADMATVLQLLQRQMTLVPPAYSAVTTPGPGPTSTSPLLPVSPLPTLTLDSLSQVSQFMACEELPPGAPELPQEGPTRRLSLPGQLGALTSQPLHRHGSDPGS

| SMILES | hERG current change (%, negative = inhibition) at 1uM |
| --- | --- |
| O=[N+]([O-])c1cccnc1NCCc1ccccc1 | -2.74% |
| CCN1CCN(c2ncnc3c2sc(=S)n3-c2ccccc2)CC1 | 7.93% |
| O=c1oc2ccccc2c2c1nc(C(F)(F)F)n2-c1ccccc1 | 8.51% |
| COc1ccc(NC(=O)CCS(=O)(=O)c2cccc3nonc23)cc1 | 8.21% |
| CCN(CC(=O)NCc1cccs1)C(=O)c1ccc(NS(=O)(=O)c2ccc(F)cc2)cc1 | 2.01% |
| Cc1cc(N)n2nc(-c3ccc(C(C)(C)C)cc3)cc2n1 | 15.2% |
| Cc1n[nH]c(=O)c2c(NC(=O)CSc3ccc(Br)cc3)oc(C)c12 | 13.8% |
| Cc1ccc(CN2CCC(n3nccc3NC(=O)C3CCOC3)CC2)cc1C (centres unmarked) | 8.82% |
| Cc1ccc(NC(=O)CSc2nnc(-c3cccnc3)o2)c(C)c1 | 11% |
| O=c1[nH]c(/C(=N\O)c2ccccc2)no1 | 21.9% |
| CCn1c(Oc2cccc(Br)c2)nc2c1c(=O)n(C)c(=O)n2C | 15.7% |
| CSC1=NC2(CC(c3ccccc3)Oc3cc(O)ccc32)CC(C)(C)N1 (centres unmarked) | -68.8% |
| Cc1cc(C(=O)O)c(CSCc2cc(C(=O)O)oc2C)o1 | 8.2% |
| CC(C)C(C)(C#N)NC(=O)CN1C(=O)NC2(CCCc3ccccc32)C1=O (centres unmarked) | 18% |
| O=C(OCCc1cc2ccccc2c(=O)o1)c1cccc(Br)c1 | 14.1% |
| O=C(c1ccc(S(=O)(=O)N2CCOCC2)cc1)N1CCc2ccccc2C1 | 2.13% |
| NNC(=O)c1ccc(Cn2cc(Cl)cn2)o1 | 15.5% |
| O=C(N/N=C/c1cc([N+](=O)[O-])ccc1O)c1cccc(NC(=O)c2cccc(Cl)c2)c1 | 14.8% |
| COC(=O)c1ccccc1NC(=O)c1cc2nc(C3CC3)cc(C(F)(F)F)n2n1 | 11.1% |
| O=C(C1CCN(C2CCN(Cc3ccc4c(c3)CCO4)CC2)CC1)N1CCOCC1 | 4.48% |
| COc1cccc(-c2cc(=O)c3cc(NC(=O)c4ccccc4)ccc3[nH]2)c1 | -6.55% |
| CC1(C)CC(=O)C(/C=N/c2ncccc2C(=O)O)=C(O)C1 | 6.24% |

| SMILES | hERG current change (%, negative = inhibition) at 1uM |
| --- | --- |
| CCN(CC)C(=O)CC(c1ccc(N(C)C)cc1)c1c(O)cc(OC)cc1OC (centres unmarked) | 11.8% |
| COc1ccccc1NC(=O)C(C)OC(=O)c1ccc(-n2cnnn2)cc1 (centres unmarked) | -18% |
| Cc1nc2ccccc2c2oc(C(=O)NCC3COc4ccccc4O3)cc12 (centres unmarked) | 4.95% |
| Cc1cc(=O)oc(C)c1C(=O)NCCNC(=O)c1c(C)cc(=O)oc1C | 10.6% |
| Cc1cc(/C=N/n2cnnc2)c(C)n1-c1ccc(Cl)cc1 | 0.149% |
| Cc1ccc(CNC(=O)C(=O)NCCC2=CCCCC2)cc1 | 12.4% |
| CCCCOC(=O)N1CCOCCOCCOCC1 | 10.8% |
| COc1ccc(-n2c(SC)nc(O)c(Cc3ccccc3)c2=O)cc1 | 11.5% |
| CC(Nc1ccccc1)c1ccncc1 (centres unmarked) | 5.57% |
| CCOC(=O)C(C)c1n[nH]c(=O)c2ccccc12 (centres unmarked) | -5.4% |
| CCO/N=C(\C)c1c(O)c2ccccc2n(C)c1=O | 11.9% |
| OCCN1C[C@H](O)[C@@H](O)[C@H](O)[C@H]1CO | -0.311% |
| C/C=C(\C)C(=O)Nc1cccc(C2=NOC3(C2)C[C@@H](C(N)=O)N(C(=O)c2cc([N+](=O)[O-])cc([N+](=O)[O-])c2C)C3)c1 (some centres unmarked) | -6.7% |
| COc1cccc(N2CCN(C(=S)Nc3cc(C)cc(C)c3)CC2)c1 | 10.2% |
| c1ccc(-c2ccc3ccccc3n2)cc1 | 3.39% |
| CCN(CC)c1ccc(S(=O)(=O)N2CCOCC2)cc1NC(=O)Cn1nc(C)c([N+](=O)[O-])c1C | -3.81% |
| CCC(C)NS(=O)(=O)c1ccc(OCC(=O)Nc2ccc(F)cc2F)cc1 (centres unmarked) | 2.3% |
| CC(C)Oc1ccccc1C1NC(=O)CCC1[N+](=O)[O-] (centres unmarked) | 15.3% |
| O=C(c1ccc(Cl)cc1)c1cnc(Nc2ccccc2)s1 | 11.4% |
| C(=N\n1cnnc1)/c1ccc(OCc2ccccc2)cc1 | -5.84% |
| O=C(NCc1ccccc1)/C(=C/c1cccc([N+](=O)[O-])c1)NC(=O)c1ccco1 | -34% |
| CCC1=C(c2ccc(C)cc2)S(=O)(=O)N=C1N1CCC(C(=O)NCCCN2CCCCC2)CC1 | 26.4% |
